Reference: US11365205B2 (Aurigene Discovery Technologies Limited, priority 2018, dated 2022)

Molecular target: PRMT5/MEP50 Complex (Homo sapiens (Human), UniProt O14744)
Assay: PRMT5 inhibition based on TR-FRET assay
Format: biochemical
Conditions: 32 nM PRMT5:MEP50, 50 nM Histone-H4 peptide, 1 μM SAM
Description: PRMT5 Inhibition Based on TR-FRET Assay:
Protein arginine methyltransferase 5 (PRMT5) is a type II arginine methyltransferase that catalyze mono- and symmetric demethylation on arginine residues of histone or non-histone proteins in presence of S-adenosylmethionine (AdoMet or SAM) a cofactor responsible for donating the methyl group. PRMT5 is reported to be overexpressed in several human cancers. To identify compounds that inhibit the PRMT5 and decrease its activity, a TR-FRET based assay has been established. Time-resolved fluorescence resonance energy transfer (TR-FRET) HTS assays are homogeneous proximity assays where the interaction of two dye-labeled binding partners is detected by the energy transfer between a donor and an acceptor dye and the subsequent light emission by the acceptor dye. PRMT5 catalyzes Histone H4 peptide which is biotin tagged to the Lysine amino acid at carboxyl end, in presence of S-adenosyl-1-methionine (SAM) to methylate the peptide. The antibody specific to mono methylated H4 peptide (H4R3) with Ig conjugate binds to the methylated peptide, indirectly binding to the Europium lanthanide. […]
The compound dilutions were prepared as 7.5% DMSO stock solutions in assay buffer. […] The plates were then read on Victor-3 with Excitation at 340 nm and Emissions collected at 615 and 665 nm in TR-FRET protocol. […]

UniProt O14744, sequence (O14744 whole entry): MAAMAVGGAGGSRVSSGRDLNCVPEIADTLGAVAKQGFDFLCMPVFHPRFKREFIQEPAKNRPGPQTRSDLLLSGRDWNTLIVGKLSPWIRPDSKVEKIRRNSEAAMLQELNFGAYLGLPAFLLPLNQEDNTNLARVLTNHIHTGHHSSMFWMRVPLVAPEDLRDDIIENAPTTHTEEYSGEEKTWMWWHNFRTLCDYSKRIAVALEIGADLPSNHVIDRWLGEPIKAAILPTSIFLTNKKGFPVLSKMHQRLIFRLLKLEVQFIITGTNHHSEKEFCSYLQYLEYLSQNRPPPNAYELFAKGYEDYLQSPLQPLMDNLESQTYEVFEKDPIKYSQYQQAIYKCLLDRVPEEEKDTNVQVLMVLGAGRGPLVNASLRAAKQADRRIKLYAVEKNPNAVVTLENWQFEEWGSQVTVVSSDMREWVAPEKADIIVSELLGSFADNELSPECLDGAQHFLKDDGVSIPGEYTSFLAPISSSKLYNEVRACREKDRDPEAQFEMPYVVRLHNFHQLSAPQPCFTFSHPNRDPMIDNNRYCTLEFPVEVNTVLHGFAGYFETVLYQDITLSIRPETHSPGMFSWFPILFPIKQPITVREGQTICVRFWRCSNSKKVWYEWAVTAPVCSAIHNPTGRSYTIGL
UniProt O14744, sequence (Q9BQA1 whole entry partner): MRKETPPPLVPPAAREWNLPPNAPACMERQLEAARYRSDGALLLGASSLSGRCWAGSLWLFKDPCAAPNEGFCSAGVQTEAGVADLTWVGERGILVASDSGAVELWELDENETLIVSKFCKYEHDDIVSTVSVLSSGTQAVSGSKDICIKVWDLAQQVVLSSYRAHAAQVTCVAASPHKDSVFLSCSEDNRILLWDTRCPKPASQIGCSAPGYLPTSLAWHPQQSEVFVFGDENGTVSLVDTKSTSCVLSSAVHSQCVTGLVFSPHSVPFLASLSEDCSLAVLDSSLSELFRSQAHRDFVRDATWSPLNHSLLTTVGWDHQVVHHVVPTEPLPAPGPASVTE

IC50 [nM]	Structure (SMILES)
80	Cc1ccc(Cn2c(=O)n(CC(O)CN3CCc4ccccc4C3)c3ccccc32)cc1 (centres unmarked) [Example 85, 1-(3-(3,4-Dihydroisoquinolin-2(1H)-yl)-2-hydroxypropyl)-3-(4-methylbenzyl)-1,3-dihydro-2H-benzo[d]imidazol-2-one]
40	CS(=O)(=O)c1ccc(Cn2c(=O)n(CC(O)CN3CCc4ccccc4C3)c3cc(F)ccc32)cc1 (centres unmarked) [Example 97, 3-(3-(3,4-Dihydroisoquinolin-2(1H)-yl)-2-hydroxypropyl)-5-fluoro-1-(4-(methylsulfonyl)benzyl)-1,3-dihydro-2H-benzo[d]imidazol-2-one]
